Results published in PubChem BioAssay (Tox21).
Where “and” joins values, the source holds several entries; their conditions need not be identical. Equal values may be shown once. Inconclusive means that the source gave no clear call. Such entries were picked first, then a sample of the others. For part of these data: A potency beside an inconclusive call is a rough fit, not a confirmed value. The source holds several records for some structures; these can differ, active in one and inactive in another. Calls of active or inactive are those of the source. Unless noted, calls come from the whole dose curve; as a rule, active = well fitted curve in the direction sought with a large enough effect in the repeat runs; inconclusive = weak or mixed curves; inactive = no such curve, though single readings can be large; an effect the other way counts as inactive or inconclusive.

What was measured:
[1] = qHTS assay for identifying genotoxic compounds that show differential cytotoxicity against isogenic chicken DT40 cell lines with known DNA damage response pathways - Rad54/Ku70 mutant cell line (AID 743015); conditions: DT40 Rad54/Ku70 mutant viability, CellTiter-Glo, 40 h; activity change, negative = cytotoxicity: at 66.8 µM (top of the series); note: nearly all actives have a fitted effect of over 60% in size; note: potency is the fitted concentration of half-maximal effect; for activity change, negative = cytotoxicity: % is set by controls: 0 for no effect and ±100 for the full control effect
[2] = qHTS assay to identify small molecule antagonists of the androgen receptor (AR) signaling pathway - cell viability counter screen (AID 743033; note: potency is the fitted concentration of half-maximal effect; nearly all actives have a fitted effect of over 45% in size); conditions: AR-bla HEK293 viability, CellTiter-Glo luminescence, 16 h; activity change, negative = cytotoxicity: at 58.5 µM (top of the series)
[3] = target: Estrogen receptor (Homo sapiens) (UniProt P03372); assay: qHTS assay to identify small molecule antagonists of the estrogen receptor alpha (ER-alpha) signaling pathway (AID 743069; active = well fitted curve in the direction sought with a large enough effect in the signal ratio in the repeat runs, not every such curve was filed as active; inconclusive = weak or mixed curves, or effect the other way; inactive = no such curve, though single readings can be large or run the other way; the % refers to the signal ratio; note: potency is the fitted concentration of half-maximal effect; for activity, negative = inhibition: % is set by controls: 0 for no effect and ±100 for the full control effect); conditions: HEK293 ER-alpha-UAS-bla, beta-lactamase ratio, antagonist mode; activity, negative = inhibition: at 69.4 µM (top of the series) unless noted
UniProt P03372, sequence (P03372 whole entry, looked up): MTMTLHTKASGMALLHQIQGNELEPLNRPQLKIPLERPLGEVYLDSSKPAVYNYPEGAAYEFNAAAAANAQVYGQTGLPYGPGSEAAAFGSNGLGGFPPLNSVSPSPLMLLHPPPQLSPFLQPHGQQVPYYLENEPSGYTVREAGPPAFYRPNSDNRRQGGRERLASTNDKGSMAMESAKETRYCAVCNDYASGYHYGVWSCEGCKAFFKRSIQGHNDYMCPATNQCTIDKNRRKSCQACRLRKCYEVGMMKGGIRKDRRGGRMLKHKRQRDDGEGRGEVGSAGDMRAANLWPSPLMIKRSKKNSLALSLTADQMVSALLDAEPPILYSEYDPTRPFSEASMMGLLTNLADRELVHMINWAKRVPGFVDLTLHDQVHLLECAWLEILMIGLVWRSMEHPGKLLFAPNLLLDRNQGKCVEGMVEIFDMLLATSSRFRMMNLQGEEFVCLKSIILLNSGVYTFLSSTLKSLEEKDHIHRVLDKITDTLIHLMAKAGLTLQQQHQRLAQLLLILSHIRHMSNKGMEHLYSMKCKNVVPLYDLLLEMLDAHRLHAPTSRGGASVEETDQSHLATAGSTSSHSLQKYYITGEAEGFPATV
Outline: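 HEK293 cells stably carrying an ER-alpha-UAS-bla beta-lactamase reporter were pre-cultured overnight in 2% charcoal-stripped FBS medium. Test compounds in DMSO were added together with 17beta-estradiol for 18 hr at 37C. Read-out was fluorescence after 2 hr with LiveBLAzer B/G FRET substrate at room temperature.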

[4] = qHTS assay to identify small molecule antagonists of the estrogen receptor alpha (ER-alpha) signaling pathway using the BG1 cell line - cell viability counter screen (AID 743081);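 note: compound given together with 17beta-estradiol as the ER stimulus; nearly all actives have a fitted effect of over 45% in size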; note: potency is the fitted concentration of half-maximal effect; for activity change, negative = cytotoxicity: % is set by controls: 0 for no effect and ±100 for the full control effect
[5] = tested on: thyroid hormone receptor (rat, GH3 cells); assay: qHTS assay to identify small molecule agonists of the thyroid receptor (TR) signaling pathway (AID 743066; calls by dose curve; note: % is set by controls: 0 for no effect and ±100 for the full control effect); conditions: GH3.TRE-Luc cells, TR agonist luciferase, 24 h; activation: at 83.9 µM (top of the series) unless noted
[6] = qHTS assay to identify small molecule antagonists of the estrogen receptor alpha (ER-alpha) signaling pathway - cell viability counter screen (AID 743074; calls by dose curve; note: nearly all actives have a fitted effect of over 45% in size; note: potency is the fitted concentration of half-maximal effect)
[7] = target: Estrogen receptor (Homo sapiens) (UniProt P03372); assay: qHTS assay to identify small molecule agonists of the estrogen receptor alpha (ER-alpha) signaling pathway using the BG1 cell line (AID 743079); conditions: BG1Luc4E2 cells, ERE-luciferase agonist, 22 h; note: nearly all actives have a fitted effect of over 20% in size; note: potency is the fitted concentration of half-maximal effect
[8] = qHTS assay to identify small molecule antagonists of the estrogen receptor alpha (ER-alpha) signaling pathway using the BG1 cell line (AID 743080; calls by dose curve;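 note: BG1 cells stimulated with 17beta-estradiol alongside compound; % is set by controls: 0 for no effect and ±100 for the full control effect; nearly all actives have a fitted effect of over 25% in size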); conditions: BG1Luc4E2 ERE-luciferase antagonist mode, luminescence; activity change, negative = inhibition: at 70.3 µM (top of the series) unless noted
Outline: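 Readout is ONE-Glo luminescence, taken 30 min at room temperature after reagent addition, preceded by a CellTiter-Fluor viability read; BG1-Luc-4E2 cells had received compound and 17beta-estradiol for 21.5 h at 37 C.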

Aromatase (Homo sapiens) = Aromatase (Homo sapiens) (UniProt P11511); assay: qHTS assay to identify aromatase inhibitors (AID 743083); note: % is set by controls: 0 for no effect and ±100 for the full control effect; nearly all actives have a fitted effect of over 55% in size
UniProt P11511, sequence (P11511 whole entry, looked up): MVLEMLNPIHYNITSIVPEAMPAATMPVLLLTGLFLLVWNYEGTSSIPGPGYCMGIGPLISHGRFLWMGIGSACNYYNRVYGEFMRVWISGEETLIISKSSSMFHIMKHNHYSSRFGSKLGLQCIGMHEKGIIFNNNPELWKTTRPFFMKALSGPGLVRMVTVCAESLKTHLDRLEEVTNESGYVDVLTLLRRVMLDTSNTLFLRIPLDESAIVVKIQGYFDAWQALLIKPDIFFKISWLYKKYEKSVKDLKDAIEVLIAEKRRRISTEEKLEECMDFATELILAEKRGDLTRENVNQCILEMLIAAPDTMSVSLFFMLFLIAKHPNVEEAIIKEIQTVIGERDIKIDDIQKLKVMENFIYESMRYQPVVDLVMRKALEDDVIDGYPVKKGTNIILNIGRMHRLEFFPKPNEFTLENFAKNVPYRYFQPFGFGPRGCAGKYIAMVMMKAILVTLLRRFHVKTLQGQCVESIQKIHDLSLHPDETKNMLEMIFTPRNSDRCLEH

[9] = target: Androgen receptor (Homo sapiens) (UniProt P10275); assay: qHTS assay to identify small molecule antagonists of the androgen receptor (AR) signaling pathway (AID 743035; active = well fitted inhibition curve with a large enough effect in the signal ratio in the repeat runs, not every such curve was filed as active; inconclusive = weak or mixed curves, or effect the other way; inactive = no such curve, though single readings can be large or run the other way; the % refers to the signal ratio; note: potency is the fitted concentration of half-maximal effect); conditions: HEK293 AR-UAS-bla, R1881-stimulated, beta-lactamase FRET, 16 h; activity change, negative = inhibition: at 58.5 µM (top of the series) unless noted
UniProt P10275, sequence (P10275 whole entry, looked up): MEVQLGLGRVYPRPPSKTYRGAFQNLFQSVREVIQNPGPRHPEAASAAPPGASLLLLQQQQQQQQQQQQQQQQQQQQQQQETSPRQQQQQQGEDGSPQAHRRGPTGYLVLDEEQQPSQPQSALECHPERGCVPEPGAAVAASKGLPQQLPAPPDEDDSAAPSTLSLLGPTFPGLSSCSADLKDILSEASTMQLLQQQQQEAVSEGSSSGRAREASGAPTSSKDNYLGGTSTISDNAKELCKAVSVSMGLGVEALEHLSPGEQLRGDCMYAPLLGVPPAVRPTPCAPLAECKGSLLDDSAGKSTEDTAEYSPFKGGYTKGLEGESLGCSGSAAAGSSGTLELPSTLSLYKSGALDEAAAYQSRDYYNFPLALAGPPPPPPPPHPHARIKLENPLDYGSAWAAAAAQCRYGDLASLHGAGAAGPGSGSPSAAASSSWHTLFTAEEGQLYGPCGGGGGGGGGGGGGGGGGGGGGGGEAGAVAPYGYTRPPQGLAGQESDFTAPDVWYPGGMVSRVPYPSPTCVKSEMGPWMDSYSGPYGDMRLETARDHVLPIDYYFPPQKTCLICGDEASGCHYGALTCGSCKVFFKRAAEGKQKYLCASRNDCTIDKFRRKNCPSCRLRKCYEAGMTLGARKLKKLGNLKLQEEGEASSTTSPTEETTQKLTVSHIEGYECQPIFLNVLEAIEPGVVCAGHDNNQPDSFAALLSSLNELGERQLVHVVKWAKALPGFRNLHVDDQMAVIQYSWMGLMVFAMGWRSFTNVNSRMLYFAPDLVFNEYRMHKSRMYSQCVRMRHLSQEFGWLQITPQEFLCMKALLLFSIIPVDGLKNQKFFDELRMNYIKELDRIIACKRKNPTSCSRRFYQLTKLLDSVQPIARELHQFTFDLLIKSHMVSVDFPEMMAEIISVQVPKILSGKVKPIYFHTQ
Outline: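 Cell line: GeneBLAzer AR-UAS-bla GripTite (HEK293). Stimulus: R1881 added after compound. Exposure: 16 h, 37C, 5% CO2. Readout: LiveBLAzer B/G FRET fluorescence after 2 h at room temperature.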

[10] = target: Androgen receptor (Homo sapiens) (UniProt P10275); assay: qHTS assay to identify small molecule agonists of the androgen receptor (AR) signaling pathway (AID 743036; active = well fitted activation curve with a large enough effect in the signal ratio in the repeat runs, with a control signal flat, not every such curve was filed as active; inconclusive = weak or mixed curves, or effect the other way; inactive = no such curve, though single readings can be large or run the other way; the % refers to the signal ratio; note: potency is the fitted concentration of half-maximal effect); conditions: HEK293 AR-UAS-bla GripTite, beta-lactamase FRET ratio, 16 h; activation: at 62.4 µM (top of the series) unless noted
Outline: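 Agonist activity was scored by beta-lactamase reporter fluorescence in stably transfected HEK293 cells exposed to compounds for 16 h at 37C and 5% CO2. Substrate loading took 2 h at room temperature.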

[11] = qHTS assay to identify small molecule antagonists of the androgen receptor (AR) signaling pathway using the MDA cell line - cell viability counter screen (AID 743041; note: nearly all actives have a fitted effect of over 45% in size; note: potency is the fitted concentration of half-maximal effect); conditions: MDA-kb2 viability, CellTiter-Fluor, 16 h, cells co-treated with R1881 androgen agonist; viability change, negative = cytotoxic: at 70.3 µM (top of the series) unless noted
Outline: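 MDA-kb2 AR-luc human breast carcinoma cells (MMTV-luciferase, AR/GR responsive) were treated with compounds plus R1881 agonist for 16 h at 37 °C. Viability was read as CellTiter-Fluor fluorescence in the same wells as the reporter assay.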

[12] = qHTS assay to identify small molecule antagonists of the thyroid receptor (TR) signaling pathway - cell viability counter screen (AID 743064); conditions: GH3.TRE-Luc viability, CellTiter-Fluor, 24 h; activity change, negative = cytotoxic: at 70.3 µM (top of the series) unless noted; note: nearly all actives have a fitted effect of over 50% in size; note: potency is the fitted concentration of half-maximal effect
Outline: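 Same-well viability check: GH3.TRE-Luc cells stimulated with 1 nM T3 alongside test compound for 23.5 h, followed by CellTiter-Fluor fluorescence.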

[13] = target: Estrogen receptor (Homo sapiens) (UniProt P03372); assay: qHTS assay to identify small molecule agonists of the estrogen receptor alpha (ER-alpha) signaling pathway (AID 743075; calls by dose curve; note: potency is the fitted concentration of half-maximal effect)
[14] = qHTS assay to identify aromatase inhibitors - cell viability counter screen (AID 743084); conditions: MCF-7 aro ERE viability, CellTiter-Fluor, 24 h; activity change, negative = cytotoxicity: at 70.3 µM (top of the series);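 note: cells stimulated with testosterone during compound exposure; potency is the fitted concentration of half-maximal effect; nearly all actives have a fitted effect of over 55% in size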
[15] = qHTS assay to identify small molecule antagonists of the thyroid receptor (TR) signaling pathway (AID 743065); note: nearly all actives have a fitted effect of over 55% in size; note: potency is the fitted concentration of half-maximal effect
Outline: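 GH3.TRE-Luc rat pituitary cells carrying two TR response elements driving luciferase were plated for 4 h, given compound plus 1 nM T3 (final), and incubated 23.5 h at 37 C. ONE-Glo luminescence measured reporter inhibition; CellTiter-Fluor fluorescence tracked cytotoxicity.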

[16] = activation: at 70.3 µM (top of the series) unless noted
Tags give direction and shape of the fitted curve or compound fluorescence and quenching.

## OC(Cn1cncn1)(Cn1cncn1)c1ccc(F)cc1F
[1]
  Potency: inactive
[2]
  Potency: inconclusive: 0.003 µM [cytotoxic, full curve, poor fit]
[3]
  Potency: inconclusive: 49 µM [activator, partial curve, poor fit]
[4]
  Potency: inactive

## Cc1ccc([N+](=O)[O-])cc1N
[1]
  Potency: inconclusive: 61 µM [cytotoxic, partial curve, poor fit]
[5]
  activation: inconclusive: 5.2% [phenotype inactive]
[3]
  Potency: inactive
[6]
  Potency: inconclusive: 21.8 µM [rising, single point] and inconclusive: 61.6 µM [rising, single point]
[7]; [16]
  activation: inconclusive: -1.17% [phenotype inactive]
[7]; at 70.3 µM (top of the series)
  activation: inactive: -1.75%
[8]
  Potency: inactive
Aromatase (Homo sapiens)
  Potency: inactive

## Nc1ccc2c3c(cccc13)-c1ccccc1-2
[1]
  Potency: active: 55 µM
[9]
  Potency: inconclusive: 22.1 µM [rising, partial curve]
[10]
  Potency: inconclusive: 22.1 µM [fluorescent, partial curve]
[11]
  Potency: inconclusive: 61.8 µM [rising, partial curve]
[12]
  Potency: inconclusive: 27.6 µM [rising, partial curve]
[3]
  Potency: inconclusive: 17.6 µM [fluorescent, partial curve]
[6]
  Potency: inconclusive: 55.5 µM [cytotoxic, single point]
[13]
  Potency: inconclusive: 4.41 µM [fluorescent, full curve]
[7]; [16]
  Potency: active: 8.72 µM
[4]
  Potency: inconclusive: 55 µM [rising, partial curve]
[14]
  Potency: inconclusive: 30.9 µM [rising, partial curve]

## CC(C)N=C=NC(C)C
[1]
  Potency: inactive
[11]
  Potency: inactive
[12]
  Potency: inactive
[13]
  Potency: inconclusive: 0.384 µM [falling, full curve]
[7]; [16]
  activation: inconclusive: 16.3% [phenotype inactive]

## Cc1cc(-c2ccccc2)nnc1NCCN1CCOCC1
[1]
  Potency: inactive
[12]
  Potency: inactive
[7]; [16]
  Potency: inconclusive: 29.8 µM [activator]
[4]
  Potency: inactive

## C[C@@H](CN1CC(=O)NC(=O)C1)N1CC(=O)NC(=O)C1
[1]
  Potency: inconclusive: 29.8 µM [cytotoxic, single point]
[11]
  Potency: inactive

## CCSC(=O)N(CC(C)C)CC(C)C
[1]
  Potency: inactive
[9]
  Potency: inactive

## CCCCOC(=O)c1ccc(O)cc1
[1]
  Potency: inconclusive: 34.8 µM [cytotoxic, full curve]
[10]
  Potency: inactive
[15]
  Potency: inactive
[6]
  Potency: inconclusive: 5.49 µM [rising, full curve]
[14]
  Potency: inconclusive: 69.4 µM [cytotoxic, single point] and inconclusive: 68.6 µM [cytotoxic, partial curve, poor fit]

## Cc1cc2nc3ccc(=[N+](C)C)cc-3sc2cc1N
[1]
  Potency: active: 0.596 µM
[2]
  Potency: inconclusive: 0.239 µM [cytotoxic, full curve, poor fit]
[9]
  Potency: inconclusive: 19 µM [falling, single point]
[10]
  activation: inconclusive: 25%
[11]
  Potency: active: 8.41 µM
[5]
  activation: inconclusive: -7.33% [phenotype inactive]
[3]
  Potency: inconclusive: 12 µM [activator]
[7]; [16]
  Potency: inconclusive: 23.7 µM [inhibitor, partial curve]
[14]
  Potency: active: 26.6 µM

## CC1(C)C(=O)N(Br)C(=O)N1Cl
[1]
  Potency: inconclusive: 61.1 µM [cytotoxic]

## Cc1cc(CCC(=O)OCCOCCOCCOC(=O)CCc2cc(C)c(O)c(C(C)(C)C)c2)cc(C(C)(C)C)c1O
[1]
  Potency: active: 23.7 µM
[2]
  Potency: inconclusive: 21.3 µM [cytotoxic, single point]
[15]
  Potency: inconclusive: 59.6 µM [inhibitor, single point]
[5]
  Potency: inactive
[6]
  Potency: inactive

## OCC1CC=CCC1 (stereo unspecified)
[1]
  Potency: inactive
[10]
  Potency: inconclusive: 1.1 µM [activator, single point]
[12]
  Potency: inactive

## C=CC(C)(C)CC(=O)OC
[1]
  Potency: inactive
[12]
  Potency: inactive
[5]
  activation: inconclusive: 3.5% [phenotype inactive] [at 95.2 µM]

## c1ccc2[nH]cnc2c1
[1]
  Potency: inconclusive: 61 µM [rising, partial curve, poor fit]
[12]
  Potency: inconclusive: 10.8 µM [rising, full curve, poor fit]
[6]
  Potency: inconclusive: 2.75 µM [cytotoxic, partial curve, poor fit]

## CC(C)CC(C)CC(C)CC(C)COC(=O)c1ccccc1C(=O)OCC(C)CC(C)CC(C)CC(C)C (stereo unspecified)
[1]
  Potency: inconclusive: 63.7 µM [cytotoxic, partial curve, poor fit]
